# Data from PubChem BioAssay AID588342 (National Center for Advancing Translational Sciences (NCATS), 2011).
# The whole screen tested about 360,000 compounds, of which about 25,000 (6.9%) were called active. Inconclusive means that the source gave no clear call. Such entries were picked first, then a sample of the others. The call rests on the fitted dose curve; in most records, active means well fitted inhibition curve with a large enough effect; inconclusive means small, poorly fitted or top-dose-only effect; inactive means flat fitted curve, though single readings scatter. A potency beside an inconclusive call is a rough fit, not a confirmed value.
# Target: Luciferin 4-monooxygenase (Photinus pyralis) (UniProt P08659)
# Assay: qHTS profiling assay for firefly luciferase inhibitor/activator using purifed enzyme and Km concentrations of substrates (counterscreen for miR-21 project); further: nearly all actives have a fitted effect of over 55% in size;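 on activity change, negative = inhibition: plate controls were vehicle for no effect and reference inhibitor for full effect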
# Conditions: purified FLuc, luminescence inhibition; activity change, negative = inhibition: at 57.5 µM (top of the series)
# How it was run: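 Purified P. pyralis luciferase (10nM final) with 10uM D-luciferin and 10uM ATP (Km levels) in 50mM Tris acetate pH 7.5, 10mM Mg acetate, 0.01% Tween-20, 0.05% BSA; qHTS 6-point titration, ~60 µM downward; luminescence read.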
# Potency means the concentration at half of the fitted maximal effect; tags describe the fitted curve by direction and shape.
# Chain of UniProt P08659 (P08659 whole entry, looked up): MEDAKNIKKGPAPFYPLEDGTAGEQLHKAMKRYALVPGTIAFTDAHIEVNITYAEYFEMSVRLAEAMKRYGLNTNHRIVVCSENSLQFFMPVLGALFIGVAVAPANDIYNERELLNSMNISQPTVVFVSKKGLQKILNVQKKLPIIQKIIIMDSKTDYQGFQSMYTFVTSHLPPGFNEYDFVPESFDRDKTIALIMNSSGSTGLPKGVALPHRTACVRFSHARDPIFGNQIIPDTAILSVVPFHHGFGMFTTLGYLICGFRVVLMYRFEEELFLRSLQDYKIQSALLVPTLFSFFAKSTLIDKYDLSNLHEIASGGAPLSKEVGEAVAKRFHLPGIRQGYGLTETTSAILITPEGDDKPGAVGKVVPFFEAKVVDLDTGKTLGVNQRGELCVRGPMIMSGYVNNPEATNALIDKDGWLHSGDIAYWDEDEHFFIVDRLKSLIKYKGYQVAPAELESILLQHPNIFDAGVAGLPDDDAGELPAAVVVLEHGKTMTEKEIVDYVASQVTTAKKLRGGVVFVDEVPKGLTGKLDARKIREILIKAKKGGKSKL
SMILES,"activity change, negative = inhibition",Potency
Cc1nn2c([nH]c(=O)c3ccccc32)c1C=O,inactive: 1.61%,
Cn1cccc1CC(=O)N/N=C/c1ccc(Cl)cc1,,"inconclusive: 23.9 µM [inhibitor, partial curve, poor fit]"
COc1cc(C=O)ccc1OCCSc1ccc(C)cc1,,"inconclusive: 21.3 µM [inhibitor, single point]"
COc1ccc(-c2cc3c(=O)n(CC(=O)NCCCN4CCC(Cc5ccccc5)CC4)ncn3n2)cc1,,active: 4.78 µM
COCCOc1cc(Nc2nnc(C(F)(F)F)s2)c(Cl)cc1Cl,,"inconclusive: 33.8 µM [inhibitor, single point]"
Cc1ccsc1C(=O)N(Cc1nnc(-c2ccccc2Cl)o1)C1CC1,,"inconclusive: 23.9 µM [inhibitor, partial curve]"
COc1ccc(C(=O)CC(=O)Nc2ccc([N+](=O)[O-])cc2)cc1,,"inconclusive: 16.9 µM [inhibitor, partial curve, poor fit]"
O=C(O)c1cccc(NC(=O)c2ccc(Cl)c(S(=O)(=O)N3CCCCCC3)c2)c1,,active: 0.107 µM
COC(=O)c1sc(N)c(C(=O)OC)c1COC(=O)CCNS(=O)(=O)c1ccc(C)cc1,inactive: -0.802%,
COc1c(Cl)cccc1-c1cn2ccccc2n1,,active: 0.536 µM
O=C(NC1CC1)C1CCN(c2nc3ccccc3s2)CC1,,"inconclusive: 26.9 µM [inhibitor, partial curve]"
NC(=O)c1ccsc1NC(=O)COC(=O)Cc1ccccc1Cl,,"inconclusive: 23.9 µM [inhibitor, single point]"
CCCCOC(=O)c1ccc(NC(=O)c2cc(-c3ccccc3)on2)cc1,inactive: 6.19%,
Cc1cc(OCc2nnc(SC(C)C(=O)O)n2Cc2ccccc2)ccc1Cl (centres undefined),,"inconclusive: 30.1 µM [inhibitor, single point]"
O=C(c1ccc(COc2ccccc2Br)cc1)N1CCCCCC1,,"inconclusive: 37.9 µM [inhibitor, single point]"
CC1(C)Cc2c(cnn2-c2ccc(F)cc2)C(NC(=O)c2ccc(=O)oc2)C1 (centres undefined),,"inconclusive: 37.9 µM [inhibitor, partial curve, poor fit]"
CC(=O)Oc1ccc(/C=C2/C(=O)N(c3ccccc3)N=C2C)cc1,,active: 23.9 µM
O=C(NNC(=S)Nc1ccc(Cl)cc1)c1ccccc1,,"inconclusive: 26.9 µM [inhibitor, partial curve]"
O=C(Nc1ccccc1)OC1CCCCc2cccnc21 (centres undefined),,"inconclusive: 21.3 µM [inhibitor, partial curve, poor fit]"
CCN1CCc2c(sc(NC(=O)c3ccc(C(=O)c4ccccc4)cc3)c2C(N)=O)C1,,"inconclusive: 26.9 µM [inhibitor, single point]"
O=C(N/N=C/C(Br)=C/c1ccccc1)c1cccnc1,,active: 13.5 µM
S=C(NN=C(C1CC1)C1CC1)Nc1ccccc1,,"inconclusive: 37.9 µM [inhibitor, single point]"

SMILES,"activity change, negative = inhibition",Potency
COc1ccc2c(c1)Cc1sc(NC(=O)c3ccccc3Br)nc1-2,,"inconclusive: 9.53 µM [inhibitor, partial curve]"
CCc1ccc(NC(=O)c2ccc3c(c2)N(Cc2ccc(C)cc2)CCS3)cc1,,"inconclusive: 26.9 µM [inhibitor, partial curve, poor fit]"
CCn1c(SCC(=O)Nc2ccc(C)cc2Br)nnc1-c1nonc1NC(C)=O,inactive: -8.95%,
O=C(NCc1ccccn1)Nc1ccc(Cl)cc1Cl,,"inconclusive: 16.9 µM [inhibitor, partial curve]"
Cc1coc2c1c(C)cc1oc(=O)c(CC(=O)NCCC(=O)O)c(C)c12,,"inconclusive: 21.3 µM [inhibitor, single point]"
COc1ccc(-n2nc3ccccc3n2)cc1,,"inconclusive: 21.3 µM [inhibitor, partial curve, poor fit]"
COc1ccc(NC(=O)c2ccc(Br)o2)c([N+](=O)[O-])c1,,"inconclusive: 2.69 µM [inhibitor, partial curve, poor fit]"
CC(=O)Nc1ccc(C(=O)N/N=C/c2ccccc2OC(=O)c2ccc(Cl)cc2)cc1,,"inconclusive: 30.1 µM [inhibitor, partial curve, poor fit]"
CC(=O)Nc1ccc(Nc2nc(C)nc3c2oc2ccccc23)cc1,inactive: -15.5%,
Cc1cccc(NC(=O)COC(=O)c2ccccn2)c1,,"inconclusive: 26.9 µM [inhibitor, partial curve, poor fit]"
Cc1ccc2c(=O)cc(C(=O)Nc3nnc(CC(C)C)s3)oc2c1C,,"inconclusive: 12 µM [inhibitor, partial curve]"
CCOC(=O)c1sc(NC(=O)c2ccc(C)o2)nc1C,,active: 6.01 µM
COc1ccc(OC(=O)c2cccnc2)cc1,,"inconclusive: 23.9 µM [inhibitor, partial curve, poor fit]"
CC(C)c1ccc(C(=O)N(c2ccccn2)C(C)c2ccco2)cc1 (centres undefined),,"inconclusive: 26.9 µM [inhibitor, single point]"
CCCCCC(=O)Nc1ccc(-c2cn3cccnc3n2)cc1,,"inconclusive: 21.3 µM [inhibitor, partial curve, poor fit]"
NC(=O)c1ccsc1NC(=O)c1ccc(N2CCCC2=O)cc1,,active: 3.01 µM
CCc1c(C(=O)Nc2ccc(OC)c(Cl)c2)[nH]c(C)c1C(C)=O,,"inconclusive: 9.53 µM [inhibitor, partial curve]"
COc1ccc(NC(=O)COC(=O)CCC(=O)c2cccs2)cc1OC,inactive: -1.04%,
CCOC(=O)C1=C(C)OC(N)=C(C#N)C1c1ccc(C)s1 (centres undefined),inactive: -11.8%,
COc1ccc(/C=N/NC(=O)c2ccoc2C)cc1CN1CCN(c2ccc(F)cc2)CC1,,"inconclusive: 23.9 µM [inhibitor, partial curve, poor fit]"
Oc1c(C(c2ccc(Cl)cc2Cl)N2CCOCC2)sc2nc(-c3ccco3)nn12 (centres undefined),,"inconclusive: 19 µM [inhibitor, partial curve]"
O=[N+]([O-])c1cccc(S(=O)(=O)Nc2cccc(-c3ccc(N4CCOCC4)nn3)c2)c1,,active: 2.13 µM
